Measured values reported in PubChem BioAssay AID1030 (National Center for Advancing Translational Sciences (NCATS), 2008).
Hit rate of the full screen: of about 220,000 compounds, about 16,000 (7.3%) were called active. Inconclusive results, whose numbers are uncertain, are shown with a selection of clear calls. The call rests on the fitted dose curve; in most records, active means well fitted inhibition curve with a large enough effect (not every such curve was filed as active); inconclusive means small, poorly fitted or top-dose-only effect, or another doubt; inactive means no such curve, though single readings can be large or run the other way. No potency is given beside an inconclusive call; the fits are too rough.

biological target: Aldehyde dehydrogenase 1A1 (Homo sapiens) (UniProt P00352); experiment: qHTS Assay for Inhibitors of Aldehyde Dehydrogenase 1 (ALDH1A1); conditions: Purified ALDH1A1, NADH fluorescence, propionaldehyde substrate; series mostly up to 75.3 µM; activity, negative = inhibition: at the top concentration;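 on activity, negative = inhibition: plate controls were no enzyme wells and a reference inhibitor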
Potency means the concentration at half of the fitted maximal effect; tags describe the fitted curve by direction and shape.

Chain of UniProt P00352 (P00352 whole entry, looked up): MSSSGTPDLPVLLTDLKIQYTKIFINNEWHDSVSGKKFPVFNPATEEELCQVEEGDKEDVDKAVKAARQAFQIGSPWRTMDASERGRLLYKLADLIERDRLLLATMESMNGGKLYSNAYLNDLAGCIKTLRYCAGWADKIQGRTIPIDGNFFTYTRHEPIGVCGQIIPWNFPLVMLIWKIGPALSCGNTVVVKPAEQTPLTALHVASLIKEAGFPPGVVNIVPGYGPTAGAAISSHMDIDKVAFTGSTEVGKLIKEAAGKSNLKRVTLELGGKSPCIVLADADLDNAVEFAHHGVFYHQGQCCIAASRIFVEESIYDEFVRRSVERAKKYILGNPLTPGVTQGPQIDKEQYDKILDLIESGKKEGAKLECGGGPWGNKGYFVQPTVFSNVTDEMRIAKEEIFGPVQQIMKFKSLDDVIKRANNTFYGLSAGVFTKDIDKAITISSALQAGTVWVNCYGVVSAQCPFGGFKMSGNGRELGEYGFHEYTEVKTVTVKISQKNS

SMILES | activity, negative = inhibition | Potency
O=C(NC1CCCC1)c1ccc(Br)o1 | inactive: -3.38% | 
CCC(Sc1ccc2nnc(-c3ccc(F)cc3)n2n1)C(=O)O (configuration not stated) |  | inconclusive [inhibitor, single point]
CCc1ccc(NC(=O)C(=O)NCCOc2ccccc2Cl)cc1 | inactive: 9.18% | 
COc1ccc(C2N=C(N)N=C(N)N2c2ccc(C)cc2)cc1 (configuration not stated) |  | inconclusive [inhibitor, single point]
CN(C)CCNC(=O)c1cc(Sc2ccc(F)cc2)nc2ccccc12 |  | inconclusive [inhibitor, single point]
O=C(CCCN1C(=O)c2ccccc2C1=O)N1CCc2ccccc2C1 |  | inconclusive [inhibitor, single point]
CCCCn1c(-c2csc(C(C)C)c2)n[nH]c1=S |  | active: 7.94 µM
CC(C)OC(=O)c1c2c(n3ccccc13)C(=O)c1ccccc1C2=O |  | inconclusive [inhibitor, partial curve]
N#Cc1ccc(-c2ccc(F)cc2)nc1Oc1ccc(F)cc1 |  | inconclusive [inhibitor, single point]
Cc1cccc(C)c1NC(=O)CSc1nnc(-c2ccccc2)n1Cc1ccc2c(c1)OCO2 |  | inconclusive [inhibitor, partial curve]
CC1(C)CC(=O)c2sc(NC(=O)C3COc4ccccc4O3)nc2C1 (configuration not stated) |  | active: 15.8 µM
CCOC(=O)c1c(NC(=O)C[n+]2ccc(Cc3ccccc3)cc2)sc(C)c1C |  | active: 0.708 µM
Cc1ccc(S(=O)(=O)N2CCC(C(=O)NNC(=O)C3CC3)CC2)cc1Cl | inactive: 0.692% | 
COc1ccc(C2C(C(C)=O)=C(Nc3ccccc3)CC(C)(O)C2C(C)=O)cc1OC (configuration not stated) |  | inconclusive [inhibitor, single point]
Nc1cc(C(=O)OCC(=O)NCC2CCCO2)ccc1Cl (configuration not stated) |  | inconclusive [inhibitor, single point]
CCCCCOc1ccc(Br)cc1CSC(=N)N | inactive: 4.06% | 
O=C(Cn1cnc2ccccc21)N/N=C/c1cccs1 | inactive: 6.76% | 
Cc1cc(NC(=O)CCC2COc3ccccc3O2)no1 (configuration not stated) | inactive: -3.2% | 
CC(NC(=O)C1CCCC1)C1CC2CCC1C2 (configuration not stated) | inactive: -3.82% | 
N/C(=N\OC(=O)CCCOc1ccccc1)c1cccc([N+](=O)[O-])c1 | inactive: -1.19% | 
COc1ccc(C2C(C(=O)N3CCN(c4ccccn4)CC3)CC(=O)N2c2ccc(OC)cc2)cc1 (configuration not stated) |  | inconclusive [inhibitor, single point]
C/C(=N/NC(=O)COc1cc(C)ccc1C(C)C)C(=O)O |  | inconclusive [inhibitor, single point]
Cc1cc(=O)n2nc(N3CCCC(C(=O)NCc4ccc5c(c4)OCO5)C3)sc2n1 (configuration not stated) |  | inconclusive [inhibitor, partial curve]
NC(=O)N/N=C/c1ccc(OCc2cccc(Cl)c2)cc1 | inactive: 10.7% | 

SMILES | activity, negative = inhibition | Potency
COc1ccc(OC2C=CC(C#Cc3ccc(Br)cc3)OC2CO)c(C(C)(C)C)c1 (configuration not stated) |  | inconclusive [inhibitor, partial curve]
O=C(CCn1cccc1)NC1CCCc2ccccc21 (configuration not stated) | inactive: 7.27% | 
Cc1cc(C)cc(N2C(=O)CC(N(C(=O)c3ccco3)c3cc(C)cc(C)c3)C2=O)c1 (configuration not stated) |  | inconclusive [inhibitor, partial curve]
O=C(CCCCCNC(=S)Nc1ccc(Cl)cc1)C[N+](=O)[O-] |  | active: 10 µM
COc1ccc(CCNC(=O)c2ccc3nc(-c4ccco4)c(-c4ccco4)nc3c2)cc1OC |  | active: 0.316 µM
COc1ccc(OC)c(N2C(=O)C(Cl)=C(N3CCCCC3)C2=O)c1 |  | inconclusive [inhibitor, single point]
COc1ccc(OC)c(Nc2nc(-c3ccc(O)c(O)c3)cs2)c1 |  | inconclusive [inhibitor, single point]
CC(C)C[C@H](NC(=O)c1nc[nH]c1C(=O)NC1CCN(C(=O)OC(C)(C)C)CC1)C(=O)OCc1ccccc1 |  | inconclusive [inhibitor, full curve]
O=C(O)c1ccc(COc2ccc3ccccc3c2/C=C2/NC(=O)N(Cc3ccc(F)cc3)C2=O)cc1 | inactive: -2.26% | 
O=C1CCc2cc(S(=O)(=O)N3CCN(C(=O)c4ccco4)CC3)ccc2N1 |  | inconclusive [inhibitor, single point]
FC(F)(F)c1ccccc1-c1ccc2ncnc(NCc3cccs3)c2c1 |  | inconclusive [inhibitor, partial curve]
O=C(C[N+]1(CC#Cc2ccccc2)CCOCC1)c1ccc(Cl)cc1 |  | active: 22.4 µM
COc1cccc(NC(=O)CSc2nnc(Cc3cccn3C)n2-c2ccc(F)cc2)c1 |  | active: 14.1 µM
COc1ccc(-c2cc(C(=O)O)c3c(C)nn(-c4ccccn4)c3n2)cc1 |  | inconclusive [inhibitor, partial curve]
CCOC(=O)C(C)Sc1nc(-c2ccco2)cc(C(F)(F)F)c1C#N (configuration not stated) |  | inconclusive [inhibitor, partial curve]
COc1ccccc1OCC(=O)NCc1nc(-c2ccccc2)no1 |  | inconclusive [inhibitor, partial curve, poor fit]
CC(C)(C)c1cc(/C=N/NC(=O)Cc2nc3ccccc3[nH]2)cc(C(C)(C)C)c1O | inactive: -3.1% | 
CC(C)S(=O)(=O)C1=NSC2=NC(=O)/C(=C\c3ccc(-c4ccccc4)o3)C(=N)N21 | inactive: 4.02% | 
Cc1cccc(C)c1NC(=S)NC(=O)CCc1ccccc1 |  | inconclusive [inhibitor, single point]
CSc1ccc(S(=O)(=O)Nc2ccc3c(c2)NC(=O)CC3)cc1 |  | inconclusive [inhibitor, single point]
Cc1nc2ccc(S(=O)(=O)Nc3cc(-c4nc5cccnc5s4)ccc3C)cc2s1 |  | inconclusive [inhibitor, single point]
COc1ccc(-c2nc(C#N)c(N3CCOCC3)o2)cc1OC |  | inconclusive [inhibitor, partial curve]
COCCNC(=O)CSc1nc(-c2ccc(OC)c(OC)c2)cc(C(F)(F)F)n1 |  | inconclusive [inhibitor, single point]
C=CCN1C(=O)C(Cc2ccccc2)SC1=Nc1ccc(C(=O)O)cc1 (configuration not stated) |  | inconclusive [inhibitor, single point]

SMILES | activity, negative = inhibition | Potency
C=CCN1c2ccccc2[C@]23C[C@@H](C(=O)OC)N(S(=O)(=O)c4c(C)noc4C)C2=NC(C(=O)OC)=C(C(=O)OC)[C@H]13 | inactive: 2.87% [at 13.5 µM] | 
CCOC(=O)CS(=O)(=O)c1nc(-c2ccc(F)cc2)cc(C(F)(F)F)n1 |  | inconclusive [inhibitor, single point]
COC(=O)c1ccc(C(NC(=O)OCc2ccccc2)/C(F)=C/[C@@H](C)C(=O)Nc2ccc(OC)cc2)cc1 (some centres not stated) | inactive: 6.5% | 
Cn1c(N)c(C#N)c2c(c1=S)COC(C)(C)C2 | inactive: -10.6% | 
COc1ccc(Nc2ncc3c(n2)CC(c2ccc(OC)cc2)CC3=O)cc1 (configuration not stated) |  | inconclusive [inhibitor, single point]
COc1cc(/C=C/[N+](=O)[O-])ccc1OCc1cccc(C(=O)O)c1 |  | active: 28.2 µM
COC(=O)[C@@]1(Cc2ccc(OC)cc2)[C@H]2c3cc(C(=O)N(C)C)n(Cc4ccccn4)c3C[C@H]2CN1C(=O)c1ccccc1 | inactive: 7.31% | 
O=C(CSc1nnnn1-c1ccccc1F)NNC(=O)c1ccco1 |  | active: 14.1 µM
Cc1cc(C(=O)Nc2ccc3c(c2)OCCO3)co1 | inactive: 3.56% | 
Cc1cc(C)n2nc(/C(C#N)=C/c3ccccc3)c(C#N)c2n1 |  | inconclusive [inhibitor, partial curve]
COC(=O)C1=C(C)N(C(C)C)C(=O)C1(NC(=O)C1CCCCC1)C(F)(F)F (configuration not stated) |  | inconclusive [inhibitor, single point]
N#CCC(CNc1ncc(C(F)(F)F)cc1Cl)OC(=O)c1ccc(Cl)cc1Cl (configuration not stated) | inactive: 1% | 
O=C(CN(Cc1ccccc1)C(=O)c1ccco1)NCc1ccc(F)cc1 |  | inconclusive [inhibitor, single point]
CC(=O)Nc1ccccc1OCC(=O)N(Cc1ccccc1)C(C)C | inactive: -1.54% | 
O=C(NC1CCCCC1)C1c2ccccc2C(=O)N1Cc1ccco1 (configuration not stated) | inactive: -7.86% | 
Cc1ccccc1C(=O)NC(=S)Nc1ccc(S(=O)(=O)N2CCN(C)CC2)cc1 |  | active: 10 µM
FC(F)(F)c1nc(NCC2CCCO2)c2nnn(Cc3ccccc3Cl)c2n1 (configuration not stated) | inactive: -8.91% | 
CCOc1ccc(NC(=O)CSc2nnc(Cn3cnc([N+](=O)[O-])n3)n2CC)cc1 |  | inconclusive [inhibitor, single point]
COc1ccccc1NC(=O)c1ccc(NC(=O)COC(=O)C2(C)CC2(Cl)Cl)cc1 (configuration not stated) |  | inconclusive [inhibitor, single point]
O=C(COC(=O)C1CC(=O)N(c2ccc3c(c2)OCCO3)C1)NC1CCCc2ccccc21 (configuration not stated) |  | inconclusive [inhibitor, single point]
Cc1ccc(S(=O)(=O)NNC(=O)c2cnn(-c3ccccc3)c2-n2cccc2)cc1 |  | active: 0.178 µM
CCOC(=O)C1(CCCc2ccccc2)CCN(Cc2cnc(C)s2)CC1 |  | inconclusive [inhibitor, partial curve]
COc1ccccc1CN1CCCC2(CCNCC2)C1 | inactive: 9.34% | 
COc1ccc(CNc2nc(-c3ccc(N(C)C)cc3)nc3ccccc23)c(OC)c1 |  | inconclusive [inhibitor, partial curve]
